Experimental data taken from PMC13083723 (Patterns, 2026).
Among all 5,400 compounds or so, about 190 (3.5%) showed an effect of 50% or more. The list shows a part of the results.

The compounds below were run on Vero-E6 (assay: primary screen, phospholipidosis by LipidTOX staining; higher = more effect of the substance). Details: 10 µM.
Outline: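 Drug-induced phospholipidosis detected with HCS LipidTOX Red reagent in Vero-E6 cells. Compounds tested at 10 μM, with amiodarone (10 μM) as positive control and DMSO (0.1 v/v %) as vehicle.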

| Structure (SMILES) | result_ITMP [%] |
| --- | --- |
| C#C[C@]1(O)CC[C@H]2[C@@H]3CCC4=CC(=NO)CC[C@@H]4[C@H]3CC[C@@]21CC (mixture of isomers) | -0.74 |
| CCN(CC)CCCN(c1ccccc1)C1Cc2ccccc2C1 | 51.9 |
| Cc1cc(Nc2ncc(Cl)c(Nc3ccccc3S(=O)(=O)C(C)C)n2)c(OC(C)C)cc1C1CCNCC1 | 50.9 |
| COCCCOc1cc(C[C@@H](C[C@H](N)[C@@H](O)C[C@H](C(=O)NCC(C)(C)C(N)=O)C(C)C)C(C)C)ccc1OC | 2.65 |
| N#CC[C@@H](C1CCCC1)n1cc(-c2ncnc3[nH]ccc23)cn1 | -6.34 |
| OCCC#Cc1nc(-c2ccc(F)cc2)c(-c2ccncc2)n1CCCc1ccccc1 | 3.49 |
| C#C[C@]1(OC(C)=O)CC[C@H]2[C@@H]3CCC4=CC(=O)CC[C@@H]4[C@H]3CC[C@@]21C | -3.91 |
| CCCCOC(=O)c1ccc(O)cc1 | 1.55 |
| CCCc1nc2c(C)cc(-c3nc4ccccc4n3C)cc2n1Cc1ccc(-c2ccccc2C(=O)O)cc1 | -12.6 |
| CC(C)(C)C1CCc2c(sc(NC(=O)c3ccco3)c2C(=O)O)C1 (centres unmarked) | -2.3 |
| Cc1noc(C)c1-c1cc(O)cc(C(O)c2ccccc2)c1 (centres unmarked) | -0.42 |
| COC1(CS(=O)c2ccccc2)CCN(CCc2c[nH]c3ccc(F)cc23)CC1 (centres unmarked) | 14.5 |
| CC1=CC(=O)c2ccccc2C1=O | -3.67 |
| Cc1ccc(C(=O)N(CCCN)[C@@H](c2nc3cc(Cl)ccc3c(=O)n2Cc2ccccc2)C(C)C)cc1 | 75.7 |
| Nc1nccc(-c2ccc3noc(-c4ccc(Cl)cc4)c3c2)n1 | 0.29 |
| CCCC(C)C1(CC)C(=O)N=C([S-])NC1=O (centres unmarked) | 0.1 |
| CC[N+](CC)(CCNC(=O)C(=O)NCC[N+](CC)(CC)Cc1ccccc1Cl)Cc1ccccc1Cl | -0.68 |
| COc1cc2ncnc(Nc3ccc(F)c(Cl)c3)c2cc1NC(=O)/C=C/CN1CCCCC1 | 19.4 |
| CC(C)N(CCc1c[nH]c2ccccc12)C(C)C | 6.36 |
| CCCCC1C(=O)N(c2ccccc2)N(c2ccccc2)C1=O | -3.37 |
| C[C@@H]1C(=O)O[C@H]2[C@H](O)C34C5C[C@@H](C(C)(C)C)[C@]36[C@@H](OC(=O)[C@@H]6O)O[C@@]4(C(=O)O5)[C@@]12O (some centres unmarked) | -1.63 |
| C[C@]12C=CC(=O)C=C1CCC1C2C(=O)C[C@@]2(C)C1CC[C@]2(O)C(=O)CO (some centres unmarked) | -1.73 |
| CN1C2CCC1CC(OC(c1ccccc1)c1ccc(Cl)cc1)C2 (centres unmarked) | 98.3 |
| O=S(=O)(c1ccccc1F)N1CCOc2c(N3CCNCC3)cccc21 | 36.8 |
| O=C(Nc1ccccc1)OCC(CN1CCCCC1)OC(=O)Nc1ccccc1 (centres unmarked) | 54.4 |
| COc1cc2c(cc1OC)-c1c(C)c3ccc(OC)c(OC)c3c[n+]1CC2 | -0.7 |
| CC1(C)C(=O)N(CCN2CCC(C(=O)c3ccc(F)cc3)CC2)c2ccccc21 | -0.9 |

| Structure (SMILES) | result_ITMP [%] |
| --- | --- |
| CC(C)(C)OC(=O)N[C@H]1CCCCC/C=C\[C@@H]2C[C@@]2(C(=O)NS(=O)(=O)C2CC2)NC(=O)[C@@H]2C[C@@H](OC(=O)N3Cc4cccc(F)c4C3)CN2C1=O | -2.86 |
| CCCN(CCC)CCc1ccc(OC)c(OCCc2ccccc2)c1 | 32.6 |
| CCC(C/C=C/c1ccccc1)(c1ccccc1)N(C)CC1CC1 (centres unmarked) | 27.7 |
| N=C(Nc1ccccc1)Nc1ccccc1 | 0.43 |
| CCN1CCN(C(=O)Cc2ccc(Nc3ncc(F)c(Nc4ccc(C(=O)Nc5ccccc5Cl)cc4)n3)cc2)CC1 | 8.87 |
| CCN(CC)CC1CCCCN1CC(=O)N1c2ccccc2C(=O)Nc2cccnc21 (centres unmarked) | -1.37 |
| CC#CCC(C)[C@H](O)/C=C/[C@@H]1[C@H]2C/C(=C/CCCC(=O)O)C[C@H]2C[C@H]1O (some centres unmarked) | 0.07 |
| NC(=O)Nc1sc(-c2ccc(F)cc2)cc1C(N)=O | -0.84 |
| Cn1c2cc(S(C)=O)sc2c2cnn(Cc3cccc(N)c3)c(=O)c21 (centres unmarked) | -1.69 |
| CCN(CC)CCNC(=O)c1ccc(I)cc1 | 2.74 |
| CC(O)(CS(=O)(=O)c1ccc(F)cc1)C(=O)Nc1ccc(C#N)c(C(F)(F)F)c1 (centres unmarked) | 1.82 |
| C[C@@H]1O[C@@H](OC[C@H]2O[C@@H](Oc3c(-c4ccc(O)c(O)c4)oc4cc(O)cc(O)c4c3=O)[C@H](O)[C@@H](O)[C@@H]2O)[C@H](O)[C@H](O)[C@H]1O | -1.31 |
| CCCCC(CC)CCC(CC(C)C)OS(=O)(=O)[O-] (centres unmarked) | -1.42 |
| CCCC(=O)Nc1ccc(OCC(O)CNC(C)C)c(C(C)=O)c1 (centres unmarked) | -4.7 |
| C[C@]12Cc3cn[nH]c3C[C@@H]1CC[C@@H]1[C@@H]2CC[C@@]2(C)[C@H]1CC[C@]2(C)O | -1.1 |
| CN(C)C(=O)N[C@H]1CC[C@H](CCN2CCN(c3cccc(Cl)c3Cl)CC2)CC1 | -1.5 |
| N[C@@H]1CCN(O)C1=O | -6.32 |
| CC(=O)Nc1ccc(OCC(O)CNC(C)C)cc1 (centres unmarked) | -0.54 |
| O=C1NN(C(=O)Nc2ccc(Br)cc2)[C@@H](c2ccccc2)[C@@H]1c1ccccc1 | 11.2 |
| CCn1cnc(C(=O)NC)c1C(=O)NC | -1.53 |
| C/C=C\C1=C(C(=O)O)N2C(=O)C(NC(=O)C(N)c3ccc(O)cc3)C2SC1 (centres unmarked) | 2.54 |
| Cc1oc(=O)oc1CN1CCN(c2cc3c(cc2F)c(=O)c(C(=O)O)c2n3C(C)S2)CC1 (centres unmarked) | -2.04 |
| C/C(O)=C(\C#N)C(=O)Nc1ccc(C(F)(F)F)cc1 | 0.72 |
| COc1nc(C)cnc1NS(=O)(=O)c1cccnc1-c1ccc(-c2nnco2)cc1 | -5.68 |
| C/C(=N\NC(=N)N)c1cc(NC(=O)CCCCCCCCC(=O)Nc2cc(/C(C)=N/NC(=N)N)cc(/C(C)=N/NC(=N)N)c2)cc(/C(C)=N/NC(=N)N)c1 | -7.21 |
| OC[C@H]1O[C@@H]2O[C@H]3[C@H](O)[C@@H](O)[C@@H](O[C@H]4[C@H](O)[C@@H](O)[C@@H](O[C@H]5[C@H](O)[C@@H](O)[C@@H](O[C@H]6[C@H](O)[C@@H](O)[C@@H](O[C@H]7[C@H](O)[C@@H](O)[C@@H](O[C@H]8[C@H](O)[C@@H](O)[C@@H](O[C@H]1[C@H](O)[C@H]2O)O[C@@H]8CO)O[C@@H]7CO)O[C@@H]6CO)O[C@@H]5CO)O[C@@H]4CO)O[C@@H]3CO | -4.2 |
